The record followed here is patent US20250361299A1 (published 2025).

In assay [1] the target is T1, Recombinant human EGFR (human, UniProt P00533 in part). Kind of assay: ELISA; with uPA. Background: An ELISA detects its analyte on a solid surface through an enzyme-linked reagent.
Assay [2] has as its target T2, Human CD3 protein (human, UniProt P07766 23-126).
T2 chain: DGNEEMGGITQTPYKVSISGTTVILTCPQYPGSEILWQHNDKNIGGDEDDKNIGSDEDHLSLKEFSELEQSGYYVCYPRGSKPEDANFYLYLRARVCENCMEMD
Kind of assay: ELISA; with uPA.

Assay [3] has as its target T1, Recombinant human EGFR. Kind of assay: ELISA; without uPA.
Assay [4] concerns the target T2, Human CD3 protein. Kind of assay: ELISA; without uPA.

B1: 1.7 proBiTE after uPA digestion (bispecific antibody)
heavy: SDNHGGSSGGSEVQLVESGGGLVQPGGSLRLSCAASGFTFNTYAMNWVRQAPGKGLEWVARIRSKYNNYATYYADSVKGRFTISRDDSKNTLYLQMNSLRAEDTAVYYCARHGNFGSSYVSYFAYWGQGTTVTVSSASTKGPSVFPLAPSSKSTSGGTAALGCLVKDYFPEPVTVSWNSGALTSGVHTFPAVLQSSGLYSLSSVVTVPSSSLGTQTYICNVNHKPSNTKVDKKVEPKS[human IgG1 Fc with T366L Y407H (EU numbers) cut from this listing]GGGGSGGGGSGGGGSEVQLVETGGGVVQPGRSLRLSCAASGFTFSSYAMHWVRQAPGKGLEWVAVISYDGSNKYYADSVKGRFTISRDNSKNTLYLQMNSLRAEDTAVYYCARGYVARGDFDYWGQGTLVTVSSGGGGSGGGGSGGGGSDVVMTQSPSTLSASVGDRVTITCRASQSMSRWLAWYQQKPGKGPKLLIYATSTLQSGVPSRFSGSGSGTEFTLTISSLQPEDFATYYCQQLDSFPFSFTFGPGTKVDLK
light: EIVVTQSPATLSVSPGERATLSCRSSTGAVTTSNYANWVQQKPGQAPRGLIGGANKRAPGVPARFSGSLSGDEATLTISSLQSEDFAVYYCALWYSNLWVFGQGTKLEIKRTVAAPSVFIFPPSDEQLKSGTASVVCLLNNFYPREAKVQWKVDNALQSGNSQESVTEQDSKDSTYSLSSTLTLSKADYEKHKVYACEVTHQGLSSPVTKSFNRGE[human IgG1 Fc with T366L Y407H (EU numbers) cut from this listing]GGGGSGGGGSGGGGSEVQLVETGGGVVQPGRSLRLSCAASGFTFSSYAMHWVRQAPGKGLEWVAVISYDGSNKYYADSVKGRFTISRDNSKNTLYLQMNSLRAEDTAVYYCARGYVARGDFDYWGQGTLVTVSSGGGGSGGGGSGGGGSDVVMTQSPSTLSASVGDRVTITCRASQSMSRWLAWYQQKPGKGPKLLIYATSTLQSGVPSRFSGSGSGTEFTLTISSLQPEDFATYYCQQLDSFPFSFTFGPGTKVDLK
As a reminder, the EC50 is the midpoint of the concentration-response curve. As to B1, the concentration for a half-maximal effect (EC50) was determined as 7.15 mg/L in assay [1] and 5.37 mg/L in assay [2].

B2: 1.6 proBiTE after uPA digestion (bispecific antibody)
heavy: SDNHGGSSGGSEVQLVESGGGLVQPGGSLRLSCAASGFTFNTYAMNWVRQAPGKGLEWVARIRSKYNNYATYYADSVKGRFTISRDDSKNTLYLQMNSLRAEDTAVYYCARHGNFGSSYVSYFAYWGQGTTVTVSSASTKGPSVFPLAPSSKSTSGGTAALGCLVKDYFPEPVTVSWNSGALTSGVHTFPAVLQSSGLYSLSSVVTVPSSSLGTQTYICNVNHKPSNTKVDKKVEPKS[human IgG1 Fc with T366L Y407H (EU numbers) cut from this listing]GGGGSGGGGSGGGGSEVQLVETGGGVVQPGRSLRLSCAASGFTFSSYAMHWVRQAPGKGLEWVAVISYDGSNKYYADSVKGRFTISRDNSKNTLYLQMNSLRAEDTAVYYCARGYVARGDFDYWGQGTLVTVSS
light: EIVVTQSPATLSVSPGERATLSCRSSTGAVTTSNYANWVQQKPGQAPRGLIGGANKRAPGVPARFSGSLSGDEATLTISSLQSEDFAVYYCALWYSNLWVFGQGTKLEIKRTVAAPSVFIFPPSDEQLKSGTASVVCLLNNFYPREAKVQWKVDNALQSGNSQESVTEQDSKDSTYSLSSTLTLSKADYEKHKVYACEVTHQGLSSPVTKSFNRGE[human IgG1 Fc with T366L Y407H (EU numbers) cut from this listing]GGGGSGGGGSGGGGSDVVMTQSPSTLSASVGDRVTITCRASQSMSRWLAWYQQKPGKGPKLLIYATSTLQSGVPSRFSGSGSGTEFTLTISSLQPEDFATYYCQQLDSFPFSFTFGPGTKVDLK
For the molecule B2, the 50% effective concentration (EC50) in assay [1] is 30.2 mg/L; in assay [2] it was 2.98 mg/L.

B3: 1.7.1 proBiTE (bispecific antibody)
heavy: QDGNEEMGGGSQDGNEEMGGGGSGGGSGGGSGLSGRSDNHGGGGSEVQLVESGGGLVQPGGSLRLSCAASGFTFNTYAMNWVRQAPGKGLEWVARIRSKYNNYATYYADSVKGRFTISRDDSKNTLYLQMNSLRAEDTAVYYCARHGNFGSSYVSYFAYWGQGTTVTVSSASTKGPSVFPLAPSSKSTSGGTAALGCLVKDYFPEPVTVSWNSGALTSGVHTFPAVLQSSGLYSLSSVVTVPSSSLGTQTYICNVNHKPSNTKVDKKVEPKS[human IgG1 Fc with T366L Y407H (EU numbers) cut from this listing]GGGGSGGGGSGGGGSGGGGSEVQLVETGGGVVQPGRSLRLSCAASGFTFSSYAMHWVRQAPGKGLEWVAVISYDGSNKYYADSVKGRFTISRDNSKNTLYLQMNSLRAEDTAVYYCARGYVARGDFDYWGQGTLVTVSSGGGGSGGGGSGGGGSGGGGSDVVMTQSPSTLSASVGDRVTITCRASQSMSRWLAWYQQKPGKGPKLLIYATSTLQSGVPSRFSGSGSGTEFTLTISSLQPEDFATYYCQQLDSFPFSFTFGPGTKVDLK
light: EIVVTQSPATLSVSPGERATLSCRSSTGAVTTSNYANWVQQKPGQAPRGLIGGANKRAPGVPARFSGSLSGDEATLTISSLQSEDFAVYYCALWYSNLWVFGQGTKLEIKRTVAAPSVFIFPPSDEQLKSGTASVVCLLNNFYPREAKVQWKVDNALQSGNSQESVTEQDSKDSTYSLSSTLTLSKADYEKHKVYACEVTHQGLSSPVTKSFNRGE[human IgG1 Fc with T366L Y407H (EU numbers) cut from this listing]GGGGSGGGGSGGGGSGGGGSEVQLVETGGGVVQPGRSLRLSCAASGFTFSSYAMHWVRQAPGKGLEWVAVISYDGSNKYYADSVKGRFTISRDNSKNTLYLQMNSLRAEDTAVYYCARGYVARGDFDYWGQGTLVTVSSGGGGSGGGGSGGGGSGGGGSDVVMTQSPSTLSASVGDRVTITCRASQSMSRWLAWYQQKPGKGPKLLIYATSTLQSGVPSRFSGSGSGTEFTLTISSLQPEDFATYYCQQLDSFPFSFTFGPGTKVDLK
Regarding B3, the 50% effective concentration (EC50) in assay [3] was 19.4 mg/L; in assay [4] it was around 178 mg/L.

B4: 1.6.1 proBiTE (bispecific antibody)
heavy: QDGNEEMGGGSQDGNEEMGGIGGGSGGGGSGLSGRSDNHGGGGSEVQLVESGGGLVQPGGSLRLSCAASGFTFNTYAMNWVRQAPGKGLEWVARIRSKYNNYATYYADSVKGRFTISRDDSKNTLYLQMNSLRAEDTAVYYCARHGNFGSSYVSYFAYWGQGTTVTVSSASTKGPSVFPLAPSSKSTSGGTAALGCLVKDYFPEPVTVSWNSGALTSGVHTFPAVLQSSGLYSLSSVVTVPSSSLGTQTYICNVNHKPSNTKVDKKVEPKS[human IgG1 Fc with T366L Y407H (EU numbers) cut from this listing]
light: EVQLVETGGGVVQPGRSLRLSCAASGFTFSSYAMHWVRQAPGKGLEWVAVISYDGSNKYYADSVKGRFTISRDNSKNTLYLQMNSLRAEDTAVYYCARGYVARGDFDYWGQGTLVTVSSGGGGSGGGGSGGGGSGGGGSDVVMTQSPSTLSASVGDRVTITCRASQSMSRWLAWYQQKPGKGPKLLIYATSTLQSGVPSRFSGSGSGTEFTLTISSLQPEDFATYYCQQLDSFPFSFTFGPGTKVDLKGGGGSGGGGSGGGGSGGGGSEIVVTQSPATLSVSPGERATLSCRSSTGAVTTSNYANWVQQKPGQAPRGLIGGANKRAPGVPARFSGSLSGDEATLTISSLQSEDFAVYYCALWYSNLWVFGQGTKLEIKRTVAAPSVFIFPPSDEQLKSGTASVVCLLNNFYPREAKVQWKVDNALQSGNSQESVTEQDSKDSTYSLSSTLTLSKADYEKHKVYACEVTHQGLSSPVTKSFNRGE[human IgG1 Fc with T366L Y407H (EU numbers) cut from this listing]
As for B4, the EC50 turned out to be 1.89 mg/L in assay [3] and 53.5 mg/L in assay [4].
